Tested on: Strongyloides stercoralis
Assay: Strongyloides stercoralis L3 infection of NSG mice with or without MPA, treatment, counts of adult worms, L1 and L3
Conditions: 5000 S. stercoralis L3 SC
Text: Strongyloides stercoralis (threadworm) is a human pathogenic parasitic roundworm that causes the disease strongyloidiasis. The adult parasitic stage lives in tunnels in the mucosa of the small intestine. S. stercoralis has been reported in other mammals, including cats and dogs. S. stercoralis infects an estimated 100 million people. Its ability to autoinfect its host enables it to persist for decades undetected and to progress to a potentially fatal hyperinfection that often is induced by glucocorticoid treatment. The mouse model described herein recapitulates all forms of human strongyloidiasis.
NSG mice infected by subcutaneous injection with 5000 S. stercoralis L3 larvae, either with or without MPA. Mice were treated with 2.5 mg/kg EMO or 3 mg/kg IVM on days 1, 15, and 30 post-injection. Adult worms, L1 larvae, or L3 larvae were counted in the mice at 6 weeks post-injection.

Compound: CC[C@H](C)[C@H]1O[C@]2(CC[C@@H]1C)C[C@@H]1C[C@@H](C/C=C(\C)[C@@H](O[C@H]3C[C@H](OC)[C@@H](O[C@H]4C[C@H](OC)[C@@H](O)[C@H](C)O4)[C@H](C)O3)[C@@H](C)/C=C/C=C3\CO[C@@H]4[C@H](O)C(C)=C[C@@H](C(=O)O1)[C@]34O)O2 [IVM, ivermectin]
- Intestinal infection: adult worms and L1 larvae (3 mg/kg on days 1, 15, and 30, 6 weeks post-injection): clearly controlled the intestinal infection, eliminating adult worms and L1 larvae

Compound: CC(C)C[C@H]1C(=O)O[C@H](Cc2ccc(N3CCOCC3)cc2)C(=O)N(C)[C@@H](CC(C)C)C(=O)O[C@H](C)C(=O)N(C)[C@@H](CC(C)C)C(=O)O[C@H](Cc2ccc(N3CCOCC3)cc2)C(=O)N(C)[C@@H](CC(C)C)C(=O)O[C@H](C)C(=O)N1C [EMO, emodepside]
- Intestinal infection: adult worms and L1 larvae (2.5 mg/kg on days 1, 15, and 30, 6 weeks post-injection): clearly controlled the intestinal infection, eliminating adult worms and L1 larvae
